Reference: PubChem BioAssay AID2147 (National Center for Advancing Translational Sciences (NCATS), 2009)
The campaign covered roughly 230,000 compounds. About 3,600 (1.6%) were called active. Inconclusive means that the source gave no clear call. Such entries were picked first, then a sample of the others. Calls come from the whole dose curve; as a rule, active = well fitted inhibition curve with a large enough effect (not every such curve was filed as active); inconclusive = small, poorly fitted or top-dose-only effect, or another doubt; inactive = no such curve, though single readings can be large or run the other way. Potencies beside an inconclusive call are fits to weak or partial responses and may not hold up.

Target: Lysine-specific demethylase 4E (Homo sapiens) (UniProt B2RXH2)
Assay: qHTS Assay for Inhibitors of Human Jumonji Domain Containing 2E (JMJD2E)
Conditions: JMJD2E catalytic domain, FDH-coupled NADH fluorescence (FDH is formaldehyde dehydrogenase); series mostly up to 57.1 µM
Note: nearly all actives have a fitted effect of over 50% in size.
Potency is the fitted concentration of half-maximal effect; tags give direction and shape of the fitted curve.

Sequence of UniProt B2RXH2 (B2RXH2 whole entry, looked up, the tested form may be a part): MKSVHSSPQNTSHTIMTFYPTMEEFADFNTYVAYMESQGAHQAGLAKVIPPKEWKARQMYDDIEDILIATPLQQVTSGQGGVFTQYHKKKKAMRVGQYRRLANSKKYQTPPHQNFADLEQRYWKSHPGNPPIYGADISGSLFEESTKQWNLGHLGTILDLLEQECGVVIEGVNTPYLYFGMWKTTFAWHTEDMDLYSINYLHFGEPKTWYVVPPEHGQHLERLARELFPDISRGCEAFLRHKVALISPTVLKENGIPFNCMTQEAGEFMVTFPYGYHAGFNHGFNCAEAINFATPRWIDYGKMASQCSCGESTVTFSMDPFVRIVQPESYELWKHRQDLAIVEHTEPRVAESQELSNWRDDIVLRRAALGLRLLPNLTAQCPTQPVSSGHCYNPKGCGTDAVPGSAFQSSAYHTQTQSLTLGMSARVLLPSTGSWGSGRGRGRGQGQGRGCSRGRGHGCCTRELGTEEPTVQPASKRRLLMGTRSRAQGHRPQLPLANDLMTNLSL

Row | Compound | Potency
1 | CCCCn1c(SCC(=O)c2ccc3c(c2)OCCO3)nnc1-c1ccco1 | inactive
2 | O=C(Nc1ccc2oc(-c3cccnc3)nc2c1)c1cccnc1 | inconclusive: 35.5 µM [inhibitor, partial curve]
3 | O=C(NCCCn1ccnc1)/C(=C\c1ccco1)NC(=O)c1ccco1 | inconclusive: 28.2 µM [inhibitor, single point]
4 | COc1cc(C(=O)c2c(C)c(CCC#N)n3ccccc23)cc(OC)c1OC | inconclusive: 35.5 µM [inhibitor, single point]
5 | O=C(/C=C/c1cccc(Br)c1)NCc1ccncc1 | inactive
6 | C=CCc1cccc2cc(NC(C)=O)c(=O)oc12 | inconclusive: 25.1 µM [inhibitor, partial curve]
7 | COc1ccc(C(=O)Nc2nc(-c3ccc(S(=O)(=O)N4CCOCC4)cc3)cs2)cc1 | inconclusive: 31.6 µM [inhibitor, single point]
8 | CC(=O)c1ccc(NC(=O)c2ccccc2Sc2ncnc3sc(C)c(C)c23)cc1 | inactive
9 | COc1cc(OC)cc(C(=O)N[C@H](C(=O)OCc2cc(=O)oc3cc(C)ccc23)C(C)C)c1 | inconclusive: 39.8 µM [inhibitor, single point]
10 | O=C(CSc1nc2ccccc2c2nc3ccccc3n12)NCc1ccco1 | inconclusive: 10 µM [inhibitor, partial curve]
11 | COc1ccc2cc(C#N)c(NC(C)C)nc2c1 | inconclusive: 28.2 µM [inhibitor, partial curve]
12 | Cc1cc(C)n2cc(CSc3nnnn3-c3ccc(Cl)cc3)nc2n1 | inconclusive: 28.2 µM [inhibitor, partial curve]
13 | Cc1c(CCC(=O)O)c(=O)oc2cc(O)ccc12 | inconclusive: 7.94 µM [inhibitor, partial curve]
14 | COc1cc(Br)cc(CNc2ccc(F)c([N+](=O)[O-])c2)c1O | inactive
15 | COc1ccc(N2CC(O)=C(c3nc(-c4ccc(F)cc4)cs3)C2=N)cc1Cl | inconclusive: 35.5 µM [inhibitor, partial curve]
16 | CC(=O)C1=C(O)C=C2Oc3c(C(C)=O)c(O)c(C)c(O)c3C2(C)C1=O (stereo unspecified) | inconclusive: 7.08 µM [inhibitor, single point]
17 | CCOC(=O)c1c(C)[nH]c(/C(C)=N/O)c1C | inconclusive: 39.8 µM [inhibitor, single point]
18 | O=C(Nc1ccc(-c2nc3cc(NC(=O)c4cccs4)ccc3o2)cc1)c1cccs1 | inconclusive: 0.141 µM [inhibitor, full curve, poor fit]
19 | O=C1C2C3C=CC(C3)C2C(=O)N1c1ccc(-c2nc3ccccc3o2)cc1 (stereo unspecified) | inconclusive: 39.8 µM [inhibitor, single point]
20 | O=C(c1ccc2nc3ccccc3c(=O)n2c1)N1CCN(Cc2ccc3c(c2)OCO3)CC1 | inconclusive: 28.2 µM [inhibitor, partial curve]
21 | COc1ccc(Nc2ncnc3c2cnn3-c2ccccc2)cc1OC | inconclusive: 6.31 µM [inhibitor, single point]
22 | COc1ccc(Cl)cc1C(=O)N/N=C/c1ccc(N2CCOCC2)cc1 | inconclusive: 28.2 µM [inhibitor, single point]
23 | C(=N\N1CCOCC1)/c1nc(-c2ccccc2)n2ccccc12 | inconclusive: 17.8 µM [inhibitor, single point]
24 | N#Cc1ccc(CNc2cnccn2)cc1 | inconclusive: 28.2 µM [inhibitor, partial curve]

Row | Compound | Potency
25 | COc1ccc(-c2[nH]nc3c2C(c2ccsc2)C(C#N)=C(N)O3)cc1 (stereo unspecified) | inactive
26 | O=c1ccn(-c2cccc(C(F)(F)F)c2)nc1-c1ccn(-c2ccccc2F)n1 | inactive
27 | N=c1c2c(n(Cc3cccc(Cl)c3)c3c1CCC3)CCCC2 | inactive
28 | COC(=O)c1c(NC(=O)c2ccco2)sc(C(=O)Nc2ccc(F)cc2)c1C | inconclusive: 5.01 µM [inhibitor, single point]
29 | Cc1ccc2nc(C3CCN(C(=O)c4ccco4)CC3)[nH]c2c1 | inactive
30 | O=[N+]([O-])c1cccc(/C=N/NC2=NCCCCC2)c1 | inactive
31 | CC(=O)[C@H]1CC[C@@H]2[C@H]3CC=C4C[C@@H](O)CC[C@]4(C)[C@H]3CC[C@]12C | inactive
32 | Cc1cc(C(c2nnnn2Cc2ccccc2)N2CCOCC2)c(C)n1-c1ccc2c(c1)OCO2 (stereo unspecified) | inconclusive: 20 µM [inhibitor, partial curve]
33 | Cc1nc(N2CCCCC2)nc(N2CCCCC2)c1C=O | inactive
34 | CCN1CCN(C(CC(C)C)c2nnnn2CS(=O)(=O)c2ccc(C)cc2)CC1 (stereo unspecified) | inconclusive: 39.8 µM [inhibitor, single point]
35 | O=c1c2[nH]c3ccccc3c2ncn1Cc1cccnc1 | inconclusive: 39.8 µM [inhibitor, single point]
36 | CC(=O)c1c(C)[nH]c(C(=O)N2CCN(C(=O)c3ccco3)CC2)c1C | inactive
37 | O=C(NCc1ccco1)c1cnccn1 | inactive
38 | COc1ccc(-c2ccc(CCC(=O)O)n2CC(=O)Nc2cccc(OC)c2)cc1 | inconclusive: 28.2 µM [inhibitor, partial curve]
39 | O=C(c1cc(-c2ccncc2)nc2ccccc12)N1CCN(S(=O)(=O)/C=C/c2ccccc2)CC1 | inconclusive: 35.5 µM [inhibitor, single point]
40 | COC(=O)c1ccc(C(NC(=O)OCc2ccccc2)/C(=C/[C@@H](C)C(=O)NCc2ccc(C)o2)c2cccnc2)cc1 (stereo partly specified) | inconclusive: 39.8 µM [inhibitor, single point]
41 | O=C(Nc1ccc(C(F)(F)F)cc1)N1CCN(c2ccnc3cc(Cl)ccc23)CC1 | inconclusive: 35.5 µM [inhibitor, single point]
42 | Nc1ccc2nc(CCc3ccccc3)[nH]c2c1 | inactive
43 | Cc1ccc(C)n1/N=C1/NC(=O)CS1 | inconclusive: 22.4 µM [inhibitor, single point]
44 | Cc1ccc(Cl)cc1NC(=S)N/N=C/c1cccc2ccccc12 | inconclusive: 35.5 µM [inhibitor, single point]
45 | COc1cccc(/C=N/NC(=O)c2cc3cc([N+](=O)[O-])ccc3s2)c1O | inconclusive: 25.1 µM [inhibitor, single point]
46 | O=C(N/N=C/C(Cl)=C\c1ccccc1)c1cnccn1 | inactive
47 | NC(=O)c1cnn2c1NC(c1ccc(F)cc1)CC2C(F)(F)F (stereo unspecified) | inconclusive: 39.8 µM [inhibitor, single point]
48 | O=C1C2=C(Nc3ccccc3SC2c2ccco2)c2ccccc21 (stereo unspecified) | inconclusive: 25.1 µM [inhibitor, partial curve, poor fit]

Row | Compound | Potency
49 | COCCn1nnnc1C(c1cc2ccc(OC)cc2[nH]c1=O)N1CCN(C2CCCCC2)CC1 (stereo unspecified) | inconclusive: 31.6 µM [inhibitor, partial curve]
50 | CCOc1ccc2[nH]c(=O)c(CN(Cc3cccs3)C(CC)c3nnnn3C(C)(C)CC)cc2c1 (stereo unspecified) | inconclusive: 28.2 µM [inhibitor, single point]
51 | O=S(=O)(Nc1nc2ccccc2nc1N1CCN(c2ccccc2)CC1)c1ccc(F)cc1 | inactive
52 | O=C(O)C1NCCc2ccccc21 (stereo unspecified) | inactive
53 | CC(=O)c1sc2nc(SCC(=O)N3CCCCC3)[nH]c(=O)c2c1C | inconclusive: 31.6 µM [inhibitor, partial curve]
54 | CC(N)C12CC3CC(C1)CC(C(C)N)(C3)C2 (stereo unspecified) | inactive
55 | Oc1ccc(/C=N/Nc2nc(N3CCCC3)nc(N3CCCC3)n2)cc1O | active: 17.8 µM
56 | CCOc1ccc2nc(N/C(N)=N/S(C)(=O)=O)nc(C)c2c1 | inconclusive: 8.91 µM [inhibitor, partial curve]
57 | O=C(NCc1ccccc1)c1csc2c1CCCCC2 | inactive
58 | O=C(CCNC(=O)Cn1ccc2ccccc2c1=O)NCCCN1CCOCC1 | inconclusive: 35.5 µM [inhibitor, single point]
59 | CN1CCc2c(sc3nc(SCC(=O)N4CCOCC4)nc(N)c23)C1 | inconclusive: 28.2 µM [inhibitor, partial curve]
60 | CC1Cc2ccccc2N1C(=O)CSc1ncc(-c2ccc(F)cc2)n1C (stereo unspecified) | inactive
61 | S=c1nc(-c2ccccc2Br)[nH][nH]1 | active: 14.1 µM
62 | CC1(C)CC2(CC(c3ccccc3F)c3ccc(O)c(O)c3O2)NC(=S)N1 (stereo unspecified) | active: 10 µM
63 | COc1ccc(C(=O)/C=C/Nc2cc(C)on2)c(OC)c1 | inconclusive: 39.8 µM [inhibitor, single point]
64 | O=c1cc(O)c2sc(Nc3ccc(F)c(Cl)c3)nc2[nH]1 | inconclusive: 12.6 µM [inhibitor, partial curve]
65 | CCOC(=O)c1[nH]c2cc3c(cc2c1NC(=O)CN1CCc2ccccc2C1)OCO3 | inconclusive: 8.91 µM [inhibitor, partial curve]
66 | O=c1c2ccccc2nc(-c2ccco2)n1Cc1ccccc1 | inactive
67 | CCOc1ccc2c(c1)n([O-])c1c([n+]2=O)CCCC1 | inconclusive: 39.8 µM [inhibitor, single point]
68 | O=C(Nc1ccccc1C(=O)NCc1ccc(Cl)cc1)c1ccco1 | inconclusive: 39.8 µM [inhibitor, single point]
69 | CCn1cc(C(=O)O)c(=O)c2cc(F)c(N3CCN[C@@H](C)C3)c(F)c21 | inconclusive: 12.6 µM [inhibitor, partial curve]
70 | C/C(=N/Nc1ccc(C)cc1)C1(C)N(O)C(C)(C)C(c2ccco2)=[N+]1[O-] (stereo unspecified) | inconclusive: 39.8 µM [inhibitor, single point]
71 | O=C(c1ccco1)N1CCN(C(c2ccccn2)c2nnnn2C2CCCC2)CC1 (stereo unspecified) | inactive
